# Laboratory results: the supplement of paper PMC12217912
# Some of the results follow. The full chains were built here from the parent and the listed change. Values near 0.05 are background.
# B1: TEV protease; numbered along this chain (parent)
# chain: MGESLFKGPRDYNPISSSICHLTNESDGHTTSLYGIGFGPFIITNKHLFRRNNGTLVVQSLHGVFKVKDTTTLQQHLVDGRDMIIIRMPKDFPPFPQKLKFREPQREERICLVTTNFQTKSMSSMVSDTSCTFPSGDGIFWKHWIQTKDGQCGSPLVSTRDGFIVGIHSASNFTNTNNYFTSVPKNFMELLTNQEAQQWVSGWRLNADSVLWGGHKVFMVKPEEPFQPVKEATQL
# Variants of: B1
# Experiment: raw area under fraction-flipped curve 0-4 h after induction (AUC4h, not background-subtracted), DNA-recorder readout of cleavage of the substrate (dimensionless); higher = more cleavage of the substrate by the protease variant
# Conditions: temperature: 34 °C; time window: 0-4 h after rhamnose induction
# Protocol: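 In vivo DNA recorder in E. coli TOP10(DE3) ΔrhaA at 34 °C. Each TEVp single-site mutant (parent TEVp 0) is paired with a single-site variant of the 7-mer TEVs (canonical ENLYFQ|S). The substrate sits between flexible linkers in a Bxb1-sfGFP-TEVs-SsrA fusion, so cleavage stabilises Bxb1 and speeds flipping of a recombination array, read by NGS. The value is the raw area under the fraction-flipped curve over 0-4 h after rhamnose induction (AUC4h), with ≥20 reads per time point. It is not background-subtracted; inactive controls average about 0.047.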
# 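Note: Bxb1 expression induced with 0.2% (w/v) L-rhamnose at OD600 near 0.5, cultures sampled hourly, flipped fraction per protease–substrate barcode pair counted by paired-end Illumina sequencing.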
Variant,area with substrate ENLYAQS,area with substrate ENLYDQS,area with substrate ENLYEQS,area with substrate ENLYGQS,area with substrate ENLYHQS,area with substrate ENLYLQS,area with substrate ENLYNQS,area with substrate ENLYPQS,area with substrate ENLYQQS,area with substrate ENLYSQS,area with substrate ENLYCQS,area with substrate ENLYIQS,area with substrate ENLYKQS,area with substrate ENLYMQS,area with substrate ENLYRQS,area with substrate ENLYVQS,area with substrate ENLYWQS,area with substrate ENLYYQS,area with substrate ENLYTQS
MGESLFKGPRDYNHISSSICHLTNESDGHTTSLYGIGFGPFIITNKHLFRRNNGTLVVQSLHGVFKVKDTTTLQQHLVDGRDMIIIRMPKDFPPFPQKLKFREPQREERICLVTTNFQTKSMSSMVSDTSCTFPSGDGIFWKHWIQTKDGQCGSPLVSTRDGFIVGIHSASNFTNTNNYFTSVPKNFMELLTNQEAQQWVSGWRLNADSVLWGGHKVFMVKPEEPFQPVKEATQL [P14H],0.0682,0.0404,0.068,0.0526,0.0722,0.0936,0.0748,0.0783,0.0803,0.0767,,,,,,,,,
MGESLFKGPRDYNPISSSICHLTNESDGHTTSLYGIGFGPFIITEKHLFRRNNGTLVVQSLHGVFKVKDTTTLQQHLVDGRDMIIIRMPKDFPPFPQKLKFREPQREERICLVTTNFQTKSMSSMVSDTSCTFPSGDGIFWKHWIQTKDGQCGSPLVSTRDGFIVGIHSASNFTNTNNYFTSVPKNFMELLTNQEAQQWVSGWRLNADSVLWGGHKVFMVKPEEPFQPVKEATQL [N45E],0.0696,0.0623,0.0612,0.0591,0.0611,,0.0635,0.0538,0.0548,,0.0628,0.0713,0.0604,0.0587,0.0785,0.0709,0.0895,0.0404,
MGESLFKGPRDYNPISSSICHLTNESDGHTTSLYGIGFGPFIITNKHLFRRNNGTLVVQSLHGVFKVKDTTTLQQHLVDGRDMIIIRMPKDFPPFPQKLKFREPQREERICLVTTNFQTKSMSSMVSDTSCTFPSGDGIFWKHWIQTKDGQCGSPLVSTRDGFIVGIHSASNFTNTNNYFTRVPKNFMELLTNQEAQQWVSGWRLNADSVLWGGHKVFMVKPEEPFQPVKEATQL [S182R],0.0583,0.0477,0.0608,0.062,,,0.0519,0.0541,0.0561,0.0509,0.0651,0.0968,,,0.0521,0.077,0.0572,0.0616,0.0778
MGESLFKGPRDYNPISSSICHLTNESDGHTTSLYGIGFGPFIITNKHLFRRQNGTLVVQSLHGVFKVKDTTTLQQHLVDGRDMIIIRMPKDFPPFPQKLKFREPQREERICLVTTNFQTKSMSSMVSDTSCTFPSGDGIFWKHWIQTKDGQCGSPLVSTRDGFIVGIHSASNFTNTNNYFTSVPKNFMELLTNQEAQQWVSGWRLNADSVLWGGHKVFMVKPEEPFQPVKEATQL [N52Q],0.0649,0.0369,,0.0591,0.0658,0.0472,0.0609,0.0538,0.0646,0.0722,0.094,,0.056,0.0705,,,0.0622,0.0788,
MGESLFKGPRDYNPISSSICHLTNESDGHTTSLYGIGFGPFIITNKHLFRRNNGTLVVQSLHGVFKVKDTTTLQQHLVDGRDMIIIRMPKDFPPFPQKLKFREPQREERICLVTTNFQTKSMSSMVSDTSCTFPSGDGIFWKHWIQTKTGQCGSPLVSTRDGFIVGIHSASNFTNTNNYFTSVPKNFMELLTNQEAQQWVSGWRLNADSVLWGGHKVFMVKPEEPFQPVKEATQL [D149T],0.0671,0.0616,0.0661,0.0707,0.065,0.0685,0.0652,0.0624,0.066,0.0732,0.0782,0.0587,0.0664,0.0687,0.0614,0.103,,0.067,0.0742
MGESLFKGPRDYNPISSSICHLTNESDGHTTSRYGIGFGPFIITNKHLFRRNNGTLVVQSLHGVFKVKDTTTLQQHLVDGRDMIIIRMPKDFPPFPQKLKFREPQREERICLVTTNFQTKSMSSMVSDTSCTFPSGDGIFWKHWIQTKDGQCGSPLVSTRDGFIVGIHSASNFTNTNNYFTSVPKNFMELLTNQEAQQWVSGWRLNADSVLWGGHKVFMVKPEEPFQPVKEATQL [L33R],0.0439,0.0532,0.0689,,0.0575,0.0522,0.058,0.0575,0.063,0.0589,0.0652,,,0.0506,0.0653,0.053,0.0592,0.0548,
MGESLFKGPRDYNPISSSICHLTNESDGHTTSLYGIGFGPFIITNKHLFRRNNGTLVVQSLHGVFKVKDTTTLQQHLVDGRDMIIIRMPKDFPTFPQKLKFREPQREERICLVTTNFQTKSMSSMVSDTSCTFPSGDGIFWKHWIQTKDGQCGSPLVSTRDGFIVGIHSASNFTNTNNYFTSVPKNFMELLTNQEAQQWVSGWRLNADSVLWGGHKVFMVKPEEPFQPVKEATQL [P94T],0.0775,0.061,0.0619,,0.082,0.0943,0.0576,,0.0649,,0.0853,,0.0737,0.0991,0.0248,,0.0884,,
MGESLFKGPRDYNPISSSICHLTNESDGHTTSLYGIGFGPFIITNKHLFRRNNMTLVVQSLHGVFKVKDTTTLQQHLVDGRDMIIIRMPKDFPPFPQKLKFREPQREERICLVTTNFQTKSMSSMVSDTSCTFPSGDGIFWKHWIQTKDGQCGSPLVSTRDGFIVGIHSASNFTNTNNYFTSVPKNFMELLTNQEAQQWVSGWRLNADSVLWGGHKVFMVKPEEPFQPVKEATQL [G54M],0.0642,0.0547,0.0542,0.0537,0.0561,0.0641,0.0496,0.0559,0.0623,0.0618,,,0.0545,,0.0602,0.0745,,,
MGESLFKGPRDYNPISSSICHLTNESDGHTTSLYGIGFGPFIITNKHLFRRNNGTLVVQSLHGVFKVKDTTTLQQHLVDGRDMIIIRMYKDFPPFPQKLKFREPQREERICLVTTNFQTKSMSSMVSDTSCTFPSGDGIFWKHWIQTKDGQCGSPLVSTRDGFIVGIHSASNFTNTNNYFTSVPKNFMELLTNQEAQQWVSGWRLNADSVLWGGHKVFMVKPEEPFQPVKEATQL [P89Y],0.0512,,0.0658,0.0432,0.0574,,0.0421,0.0563,,,,0.062,0.0551,0.0621,0.0285,0.0744,0.0248,0.0437,0.0691
